About 520 (0.14%) of roughly 360,000 compounds were called active. Inconclusive means that the source gave no clear call. Such entries were picked first, then a sample of the others. Calls follow the shape of the dose curve; as a rule, active = well fitted inhibition curve with a large enough effect; inconclusive = small, poorly fitted or top-dose-only effect; inactive = no such curve, though single readings can be large or run the other way. No potency is given beside an inconclusive call; the fits are too rough.
What follows are compounds tested against Rap guanine nucleotide exchange factor 3 (Homo sapiens) (UniProt O95398) (assay: qHTS for Antagonist of cAMP-regulated guanine nucleotide exchange factor 3 (EPAC1): primary screen). Conditions: EPAC1 GEF assay, Rap1b-BODIPY-GDP exchange fluorescence; activity change, negative = inhibition: at 115 µM (top of the series).
Sequence of UniProt O95398 (O95398 whole entry, looked up): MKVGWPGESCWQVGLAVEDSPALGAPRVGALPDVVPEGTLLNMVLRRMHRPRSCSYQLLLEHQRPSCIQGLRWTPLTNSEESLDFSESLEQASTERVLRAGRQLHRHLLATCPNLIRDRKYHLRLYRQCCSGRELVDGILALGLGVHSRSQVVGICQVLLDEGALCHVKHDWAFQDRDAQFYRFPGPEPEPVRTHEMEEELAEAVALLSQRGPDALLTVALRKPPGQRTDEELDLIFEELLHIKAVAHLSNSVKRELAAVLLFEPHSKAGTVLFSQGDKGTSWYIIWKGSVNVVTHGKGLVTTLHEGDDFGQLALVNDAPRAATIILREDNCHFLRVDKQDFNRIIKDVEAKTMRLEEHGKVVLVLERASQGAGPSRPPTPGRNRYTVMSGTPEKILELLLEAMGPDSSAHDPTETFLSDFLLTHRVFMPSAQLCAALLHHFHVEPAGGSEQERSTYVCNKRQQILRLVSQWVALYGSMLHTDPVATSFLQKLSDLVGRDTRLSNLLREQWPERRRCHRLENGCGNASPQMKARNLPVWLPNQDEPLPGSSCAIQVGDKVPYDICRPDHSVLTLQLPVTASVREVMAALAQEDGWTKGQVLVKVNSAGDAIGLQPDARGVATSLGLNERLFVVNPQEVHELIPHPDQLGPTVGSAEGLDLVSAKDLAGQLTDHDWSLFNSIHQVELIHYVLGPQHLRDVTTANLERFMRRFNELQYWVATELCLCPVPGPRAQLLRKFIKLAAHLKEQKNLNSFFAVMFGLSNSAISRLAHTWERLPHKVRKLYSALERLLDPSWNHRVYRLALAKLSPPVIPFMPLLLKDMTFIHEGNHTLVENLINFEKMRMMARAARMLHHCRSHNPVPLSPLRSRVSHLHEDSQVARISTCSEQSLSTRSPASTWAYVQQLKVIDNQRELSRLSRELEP
For `Cc1cccc(NC(=S)N/C(=N/S(=O)(=O)c2ccccc2)c2ccccc2)c1`, the Potency was “inactive”. In the case of `CCc1ccc(CNc2ccc3c(c2)ncn3C)cc1`, the “activity change, negative = inhibition” value is reported as inactive: -11.4%. For `O=[N+]([O-])c1ccc(Sc2n[nH]c(-c3ccco3)n2)nc1`, the Potency was inconclusive [inhibitor, single point]. For `Nc1ncccc1OCc1cccc(C(F)(F)F)c1`, the Potency was inconclusive [inhibitor, partial curve]. With `CC1CCN(C(=O)CSc2ccc(-c3ccc(F)cc3)nn2)CC1` the Potency was inconclusive [inhibitor, partial curve]. In the case of `Cc1ccc(NC(=O)CN(C)c2ccc(S(=O)(=O)N3CCCC3)cn2)cc1`, the Potency is reported as inconclusive [inhibitor, single point]. With `CNC(=O)CSc1nnc(-c2ccco2)n1-c1cc(C)ccc1C` the “activity change, negative = inhibition” value was inactive: 6.3%. For `Cc1ccc(N(CC(=O)Nc2ccc(Br)c(C)c2)S(=O)(=O)c2c(C)[nH]c(=O)[nH]c2=O)cc1`, the Potency was inconclusive [inhibitor, full curve, poor fit]. `O=C(Nc1ccc(F)cc1)c1nn(-c2ccccc2)c(=O)cc1Cl` was tested, and the Potency was inconclusive [inhibitor, partial curve]. For `O=C(CC(=O)c1ccccc1O)c1cccc(F)c1`, the Potency was inconclusive [inhibitor, partial curve]. For `CCn1cc(CN2CCN(CCc3ccccc3)C(CCO)C2)c(C)n1` (stereo unspecified), the “activity change, negative = inhibition” value was inactive: -9.16%. In the case of `Cc1ccc(N=Cc2cc(Cc3ccccc3Cl)cc([N+](=O)[O-])c2O)c(O)c1`, the Potency is reported as inconclusive [inhibitor, partial curve]. For `O=C1NC2c3c(Cl)sc(Cl)c3C(=O)C2O1` (stereo unspecified), the “activity change, negative = inhibition” value was inactive: -6.92%. With `C/C(=N\NC(=S)Nc1cc(S(=O)(=O)N2CCOCC2)ccc1Cl)c1ccccc1F` the Potency was inconclusive [inhibitor, full curve, poor fit]. With `Cc1ccc(C(=O)OCC(=O)NC2CCCC2)cc1C` the Potency was inconclusive [inhibitor, partial curve]. In the case of `CN1CCN(CC(=O)Nc2ccccc2Oc2ccccc2)CC1`, the “activity change, negative = inhibition” value is reported as inactive: -8.3%. With `N#C/C(=C\c1cc(O)c(O)c(O)c1)C(N)=O` the Potency was inconclusive [inhibitor, partial curve]. In the case of `O=C(NC1CCc2ccccc21)c1cc(COc2cncc(Cl)c2)on1` (stereo unspecified), the Potency is reported as inconclusive [inhibitor, single point]. `COc1ccc(CN(CCC(c2ccccc2)c2ccc(OC(C)C)cc2)C(=O)CCl)cc1OC` (stereo unspecified) was tested, and the Potency was inconclusive [inhibitor, partial curve, poor fit]. In the case of `CCCS(=O)(=O)c1c(S(=O)(=O)CCC)c2c(C)cccn2c1C(=O)N/N=C/c1cc(O)cc(O)c1`, the Potency is reported as inconclusive [inhibitor, single point]. In the case of `C#CCOCCOCCOCCNc1nc(N2CCN(C(=O)CCCCCCCCCCNC(=O)[C@H](CCCCN)n3cc(C[C@@H](C)CC)nn3)CC2)nc(N2CCN(C(=O)CCCCCCCCCCNC(=O)[C@H](CCCN=C(N)N)n3cc(C[C@@H](C)CC)nn3)CC2)n1`, the Potency is reported as inconclusive [inhibitor, partial curve, poor fit]. In the case of `CCc1ccc2nc(N(CCCN(C)C)C(=O)c3ccc(S(=O)(=O)N(C)C4CCCCC4)cc3)sc2c1`, the Potency is reported as inconclusive [inhibitor, single point]. For `COc1cc(C#Cc2ccc3cc(CCCO)oc(=O)c3c2)cc(OC)c1`, the Potency was inconclusive [inhibitor, full curve, poor fit]. With `Cc1ccc(C(c2c(C)[nH][nH]c2=O)c2c(C)[nH][nH]c2=O)cc1` the Potency was inconclusive [inhibitor, single point]. In the case of `O=C(COc1ccc(Br)cc1)Nc1ccc(C(=O)Nc2ccccc2C(=O)O)cc1`, the Potency is reported as inconclusive [inhibitor, single point]. `NC(=O)c1nsc(C(=O)N(c2ccccc2)C(C(=O)NC2CCCCC2)c2ccc(O)cc2)c1N` (stereo unspecified) was tested, and the Potency was inconclusive [inhibitor, full curve]. For `CN1CCN(C(=O)c2cc3c(C(F)(F)F)nn(C)c3s2)CC1`, the Potency was inconclusive [inhibitor, full curve, poor fit]. With `CN(Cc1ccccc1)c1nc(-c2cccc([N+](=O)[O-])c2)nc2ccccc12` the “activity change, negative = inhibition” value was inactive: -9.75%. In the case of `COc1ccc(/C=N/NC(=O)c2nc(-c3ccccc3)cc(-c3ccccc3)n2)cc1OC`, the “activity change, negative = inhibition” value is reported as inactive: 1.45%. In the case of `Cc1ccc(OCC(=O)Nc2ccc(N3CCCC3)cc2)cc1C`, the Potency is reported as inconclusive [inhibitor, partial curve, poor fit]. With `O=C(CC1C(=O)NCCN1Cc1ccc(F)cc1)NC1CCCCCCC1` (stereo unspecified) the activity change, negative = inhibition was inconclusive: -18.2% [inhibitor]. In the case of `Cc1nc2ccccc2c(=O)n1/N=C/c1ccc(O)c(O)c1O`, the Potency is reported as inconclusive [inhibitor, partial curve]. `CCCCNc1c(-c2cc3ccccc3o2)nc2nc(C)cc(C)n12` was tested, and the Potency was inconclusive [inhibitor, single point]. With `COc1ccc(NC(=O)c2cc(-c3ccc4c(c3)OCO4)on2)cc1` the Potency was inconclusive [inhibitor, partial curve]. For `Cc1c(Cl)sn(-c2ccc(Cl)cc2)c1=O`, the “activity change, negative = inhibition” value was inactive: -0.166%. For `COc1ccc(NC(=O)COC(=O)Cc2c(F)cccc2Cl)cc1`, the “activity change, negative = inhibition” value was inactive: 7.52%. For `COCCn1c(=NC(=O)CN2C(=O)CCC2=O)sc2cc(S(N)(=O)=O)ccc21`, the Potency was inconclusive [inhibitor, single point]. With `Cc1ccc(-c2nnc(SCC(=O)NC3CCCC3)n2C)cc1` the “activity change, negative = inhibition” value was inactive: -2.55%. With `O=C(c1cc2c(s1)-c1ccccc1OC2)N1CCCC1` the Potency was inconclusive [inhibitor, single point]. In the case of `COc1ccc(C(CNC(=O)c2oc3ccc(C)cc3c2C)N2CCCCC2)cc1` (stereo unspecified), the Potency is reported as inconclusive [inhibitor, single point]. `COC(=O)c1ccc(NC(=O)CCc2nnc3ccc(NCc4ccco4)nn23)cc1` was tested, and the activity change, negative = inhibition was inconclusive: -0.0126% [inhibitor]. With `CC(C)(C)C(=O)Nc1ccccc1N1CCN(c2ccc(F)cc2)CC1` the Potency was inconclusive [inhibitor, partial curve, poor fit]. With `CCC(C)NC(=O)C(=O)NC1CCCC1` (stereo unspecified) the Potency was inconclusive [inhibitor, partial curve]. With `O=C(N/N=C1/CCc2ccccc21)C1CC1` the “activity change, negative = inhibition” value was inactive: 3.8%. `Cc1n[nH]c(=O)c2c(NC(=O)CSc3nnnn3-c3ccccc3)oc(C)c12` was tested, and the Potency was inconclusive [inhibitor, partial curve, poor fit]. `COc1cc(NC(=O)c2cccs2)c(OC)cc1NC(=O)CCC(=O)Nc1ccc2ncccc2c1` was tested, and the Potency was inconclusive [inhibitor, full curve, poor fit]. `COC(CNC(=O)CN1CCN(Cc2ccccc2F)C1=O)OC` was tested, and the “activity change, negative = inhibition” value was inactive: 4.62%. For `Cc1ccc(N(C(=O)CCC(=O)Nc2cc(C)on2)C(C(=O)NC2CCCC2)c2ccccc2)cc1` (stereo unspecified), the Potency was inconclusive [inhibitor, partial curve]. For `COc1ccc(CNC(=S)Nc2cccc(F)c2)cc1`, the Potency was inconclusive [inhibitor, single point]. In the case of `CCOC(=O)c1c(C)n(S(=O)(=O)c2ccc(C)cc2)c2ccc(O)c(C(=O)O)c12`, the “activity change, negative = inhibition” value is reported as inactive: -12.3%. With `Cc1ccc(OCCCSc2n[nH]c(N)n2)cc1` the Potency was inconclusive [inhibitor, partial curve]. In the case of `C=C(C)C(=O)Nc1ccc2c(c1)OCCOCCOCCO2`, the Potency is reported as inconclusive [inhibitor, full curve, poor fit]. With `N#Cc1c(NC(=O)CSc2ccccn2)oc(-c2ccccc2)c1-c1ccccc1` the Potency was inconclusive [inhibitor, partial curve]. In the case of `O=C1C(=O)c2cccnc2-c2ncccc21`, the Potency is reported as inconclusive [inhibitor, full curve]. With `CCN1CCN(c2ccc(S(=O)(=O)N3CCOCC3)cc2NC(=O)/C=C/c2ccc([N+](=O)[O-])cc2)CC1` the “activity change, negative = inhibition” value was inactive: 6.8%. In the case of `Cc1ccc(CSC2=NCCN2S(=O)(=O)c2ccc(F)cc2)cc1`, the Potency is reported as inconclusive [inhibitor, partial curve]. In the case of `CC(C)(C)N/N=C/c1cc(Cl)cc([N+](=O)[O-])c1O`, the Potency is reported as inconclusive [inhibitor, single point]. For `COCCNC(=O)C1(C)CCCN(C(=O)c2cc(C)oc2C)C1` (stereo unspecified), the “activity change, negative = inhibition” value was inactive: 4.45%. In the case of `Cc1ccnc(NC(=O)CCC(=O)c2cccs2)c1`, the Potency is reported as inconclusive [inhibitor, single point]. In the case of `CCOc1ccc(CN(C)C(=O)[C@H](Cc2ccccc2)NC(=O)OCc2ccccc2)cc1OC`, the Potency is reported as inconclusive [inhibitor, single point]. For `CCOC(=O)C1CCN(c2ccc([N+](=O)[O-])cc2S(=O)(=O)N2CCOCC2)CC1`, the Potency was inconclusive [inhibitor, partial curve]. For `O=C(NC(=S)Nc1ccc(S(=O)(=O)N2CCCCC2)cc1)c1ccc(Cl)cc1`, the Potency was inconclusive [inhibitor, partial curve]. In the case of `CC/C(=N\NC(=O)C(N)=O)c1ccccc1O`, the Potency is reported as inconclusive [inhibitor, partial curve]. In the case of `CN(C)C(=O)OCc1c(-c2ccccc2)ncc2ccccc12`, the Potency is reported as inconclusive [inhibitor, single point]. In the case of `O=C(C1=C[C@@H](c2ccc3c(c2)OCO3)C[C@@H](OCCCCO)O1)N1CCOCC1`, the “activity change, negative = inhibition” value is reported as inactive: 5.55%. For `Cc1ccc(NC(=O)CCNS(=O)(=O)c2ccc3[nH]c(=O)oc3c2)cc1C`, the activity change, negative = inhibition was inconclusive: -15.4% [inhibitor].

Reference: PubChem BioAssay AID720709 (National Center for Advancing Translational Sciences (NCATS), 2013)
Also: nearly all actives have a fitted effect of over 50% in size.
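For activity change, negative = inhibition in this document: plate controls were vehicle for no effect and positive control for full effect.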
Potency is read from the fitted curve at half-maximal effect; tags tell the direction and shape of the fitted curve.
